The record followed here is patent publication US20250101074A1 (Affibody, published 2025).

Where a chain is given by its changes, count along the chain named. Names and notes keep the numbering of the source. Where two headings read alike, the source gives them in different places. A value given as a limit tells only on which side of the number the result lay.

Experiment [1] concerns the target T1, human IL-17A (human, UniProt Q16552 20-155, limits assumed).
T1 sequence: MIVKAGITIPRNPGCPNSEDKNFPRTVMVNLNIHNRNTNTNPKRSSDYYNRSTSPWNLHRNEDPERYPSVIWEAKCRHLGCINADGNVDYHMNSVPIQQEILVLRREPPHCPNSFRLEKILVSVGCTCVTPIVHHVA
Put plainly: cell-based or functional assay.

In experiment [2] the target is T1, human IL-17A. Nature of the experiment: cell-based or functional assay. The source holds these as a separate data set.
Experiment [3] addresses T1, human IL-17A. Put plainly: SPR (Biacore), immobilized hIL-17A, 1:1 model. As to the method: One flow cell surface on the chip was activated and deactivated for use as blank during analyte injections. In the kinetic experiment, HBS-EP was used as running buffer and the flow rate was 50 μl/min. […] Kinetic constants were calculated from the sensorgrams using the Langmuir 1:1 model of BiaEvaluation software 4.1 (GE Healthcare).

A further experiment deals with T2, human IL-17F (human, UniProt Q96PD4 31-163).
T2 construct: R&D Systems cat. no; 1335-IL/CF; also called hIL-17F
T2 sequence: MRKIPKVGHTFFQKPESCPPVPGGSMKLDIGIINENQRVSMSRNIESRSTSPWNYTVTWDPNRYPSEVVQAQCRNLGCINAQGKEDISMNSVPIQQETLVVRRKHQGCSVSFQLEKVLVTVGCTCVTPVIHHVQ
Nature of the experiment: SPR (Biacore 2000), hIL-17F immobilized on a CM5 chip, 20 nM Z variant injected, blank surface subtracted. Here is the method: The immobilization was performed using amine coupling chemistry according to the manufacturer's protocol and using HBS-EP as running buffer. One flow cell surface on the chip was activated and deactivated for use as blank during analyte injections. […] The results were analyzed using the BiaEvaluation software.

In experiment [4] the target is T1, human IL-17A. Nature of the experiment: cell-based or functional assay. This is another data set of the same source.
The target in experiment [5] is T3, human serum albumin (human, UniProt P02768 25-609).
T3 construct: also called HSA
Put plainly: KinExA, free ZAZ3363, HSA as titrant.

Experiment [6] deals with T1, human IL-17A. Put plainly: KinExA, ZAZ in complex with HSA, IL-17A as titrant.
The target in experiment [7] is T3, human serum albumin. Nature of the experiment: KinExA, ZAZ3363 in complex with IL-17A, HSA as titrant.
T3 sequence (P02768 25-609 limits assumed): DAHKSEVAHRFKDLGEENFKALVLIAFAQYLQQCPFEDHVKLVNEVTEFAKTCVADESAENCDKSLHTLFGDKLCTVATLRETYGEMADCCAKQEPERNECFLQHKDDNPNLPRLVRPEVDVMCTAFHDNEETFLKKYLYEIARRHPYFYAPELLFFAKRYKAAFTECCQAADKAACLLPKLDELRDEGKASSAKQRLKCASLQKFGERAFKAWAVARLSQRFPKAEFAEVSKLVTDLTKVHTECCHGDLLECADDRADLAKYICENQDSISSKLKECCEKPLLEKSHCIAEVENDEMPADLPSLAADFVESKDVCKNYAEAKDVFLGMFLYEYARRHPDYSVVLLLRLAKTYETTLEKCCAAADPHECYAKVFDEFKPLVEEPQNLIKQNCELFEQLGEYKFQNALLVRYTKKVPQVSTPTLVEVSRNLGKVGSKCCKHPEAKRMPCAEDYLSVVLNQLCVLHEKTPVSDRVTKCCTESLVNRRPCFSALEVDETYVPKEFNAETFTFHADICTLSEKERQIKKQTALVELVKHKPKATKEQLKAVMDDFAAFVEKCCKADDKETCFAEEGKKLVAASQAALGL
The next experiment concerns the target T4, cynomolgus monkey IL-17A (cynomolgus monkey, UniProt Q16552 24-155 (human entry), limits assumed).
T4 construct: Evitria, custom order; also called cIL-17A; cynomolgus IL-17A
T4 chain: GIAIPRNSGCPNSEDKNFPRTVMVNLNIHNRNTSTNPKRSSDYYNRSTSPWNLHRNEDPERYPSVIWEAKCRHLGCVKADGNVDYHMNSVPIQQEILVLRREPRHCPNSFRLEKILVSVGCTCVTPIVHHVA
Nature of the experiment: SPR (Biacore 2000), ZAZ polypeptide captured on immobilized HSA, cynomolgus IL-17A injected at 2.5, 10 and 40 nM, blank surface subtracted. As to the method:
(§1) The immobilization was performed using amine coupling chemistry according to the manufacturer's protocol and using HBS-EP as running buffer. […] One flow cell surface on the chip was activated and deactivated for use as blank during analyte injections. […] The results were analyzed using the BiaEvaluation software.

Experiment [8] concerns the target T1, human IL-17A. Nature of the experiment: cell-based or functional assay. The source holds these as a separate data set.
A further experiment addresses T5, rhesus monkey IL-17A (rhesus monkey, UniProt Q16552 24-155 (human entry), limits assumed).
T5 construct: Cusabio cat. no; CSB-EP011597MOV; also called rmIL-17A; rmIL-17-A
T5 chain: T4 chain with S8P, N17T, S34N, K78N
Nature of the experiment: SPR (Biacore), ZAZ captured on immobilized HSA, IL-17A injected. Here is the method:
as §1

In experiment [9] the target is T1, human IL-17A. Nature of the experiment: KinExA, ZAZ in complex with HSA, IL-17A as titrant; ZAZ3220 in complex with HSA; KinExA.

B1: Z06455-ABD (designed binder)
chain: MGSSLQVDAKYAKEMDNAQWEIWLLPNLTWAQQHAFIGKLIDDPSQSSELLSEAKKLNDSQAPKVDSSLAEAKEAANAELDSYGVSDFYKRLIDKAKTVEGVEALKDAILAALP
Regarding B1, in the experiment with human IL-17A [1], the “IC50, IL-17A induced IL-6 production, NHDF cells, with HSA” value (shortened to “IC50 … with HSA”) amounted to 15000 pM.

B2: Z06260-ABD (designed binder)
chain: B1 chain with M15H, N17Y, Q19W, W20F, L24A, A31D, Q33A, H34T, G38R, I41N
Consider B2, for which the “IC50 … with HSA” value with human IL-17A [1] amounted to 8000 pM.

B3: His6-Z10508 (designed binder)
chain: MGSSHHHHHHLQVDAKYAKEADDAAVEIAALPNLTWDQWFAFISKLRDDPSQSSELLSEAKKLNDSQAPKVD
B3: the “IC50, IL-17A induced IL-6 production, NHDF cells” value with human IL-17A [2] is 5700 pM. In the experiment with human IL-17A [3], the Kd came out at 4000 pM, the koff is 0.002 s⁻¹ and the kon came to 510000 M⁻¹ s⁻¹. Further, in the experiment with human IL-17F, the binding result is on record as “no binding (tested: 20 nM)”.

B4: His6-Z06282 (designed binder)
chain: B3 chain with D23Q, V26M, A30T, S44A
In the case of B4, in the experiment with human IL-17A [1], the “IC50 … with HSA” value amounted to 16000 pM.

B5: His6-Z10532 (designed binder)
chain: B3 chain with A30S, F40Y, S44Q
B5: the “IC50, IL-17A induced IL-6 production, NHDF cells” value in the experiment with human IL-17A [2] is 6400 pM. Moreover, in the experiment with human IL-17A [3], the Kd was determined as 2400 pM, the koff is 0.0015 s⁻¹ and the kon stood at 620000 M⁻¹ s⁻¹. The binding result in the experiment with human IL-17F was “no binding (tested: 20 nM)”.

B6: His6-Z15167 (designed binder)
chain: B3 chain with A30S, D37A, F40Y, S44Q
B6: in the experiment with human IL-17A [3], the affinity, expressed as Kd, was 1100 pM; the koff was 0.0014 s⁻¹; the kon came out at 1.3e+06 M⁻¹ s⁻¹. Besides, the binding result in the experiment with human IL-17F is on record as “no binding (tested: 20 nM)”.

B7: Z06282-ABD (designed binder)
chain: MGSSLQVDAKYAKEADQAAMEIATLPNLTWDQWFAFIAKLRDDPSQSSELLSEAKKLNDSQAPKVDSSLAEAKEAANAELDSYGVSDFYKRLIDKAKTVEGVEALKDAILAALP
Turning to B7, the “IC50 … with HSA” value with human IL-17A [1] came to 15000 pM.

B8: ZAZ3363 (designed binder)
chain: AEAKYAKEADDAAVEIASLPNLTWDQWYAFIQKLRDDPSQSSELLSEAKKLNDSQAPKASGSLAEAKEAANAELDSYGVSDFYKRLIDKAKTVEGVEALKDAILAALPGTGGGGSAEAKYAKEADDAAVEIASLPNLTWDQWYAFIQKLRDDPSQSSELLSEAKKLNDSQAPK
notes: Z-ABD-Z polypeptide; also called Z14253-[ASGS]-PP013-[GT-G4S]-Z14253
On to B8, for which, in the experiment with human IL-17A [4], the “IC50, IL-17A induced IL-6 production, NHDF cells; 0 weeks at 40 C” value (shortened to “IC50 … 0 weeks at 40 C”) was 380 pM; the “IC50, IL-17A induced IL-6 production, NHDF cells; after 2 weeks at 40 C” value (from here on “IC50 … after 2 weeks at 40 C”) is 250 pM; the “IC50, IL-17A induced IL-6 production, NHDF cells; after 4 weeks at 40 C” value (shortened to “IC50 … after 4 weeks at 40 C”) amounted to 490 pM. The molecule further gave a Kd in the experiment with human serum albumin [5] of 48.5 pM. In the experiment with human IL-17A [6], binding was characterised by a dissociation constant (Kd) of 0.323 pM, the koff came to 1.55e-06 s⁻¹ and the kon was determined as 4.78e+06 M⁻¹ s⁻¹. Besides, in the experiment with human serum albumin [7], binding was put at a Kd of 29.4 pM, the off-rate constant (koff) turned out to be 3.56e-05 s⁻¹ and the kon was 1.21e+06 M⁻¹ s⁻¹. In addition, in the experiment with cynomolgus monkey IL-17A, the binding result is “binds”.

B9: ZAZ3422 (designed binder)
chain: B8 chain with D25A, D140A
notes: Z-ABD-Z polypeptide; D25A in both Z14253 moieties of ZAZ3363; also called Z15166-[ASGS]-PP013-[GT-G4S]-Z15166
Regarding B9, in the experiment with human IL-17A [4], the “IC50 … 0 weeks at 40 C” value is 380 pM; the “IC50 … after 2 weeks at 40 C” value was 450 pM; the “IC50 … after 4 weeks at 40 C” value stood at 420 pM. In the experiment with human IL-17A [6], this molecule yielded a Kd of 0.0785 pM, a koff of 6.08e-07 s⁻¹ and a kon of 7.8e+06 M⁻¹ s⁻¹.

B10: ZAZ3365 (designed binder)
chain: B8 chain with D11Q, S18D, D25A, D126Q, S133D, D140A
notes: Z-ABD-Z polypeptide; also called Z14255-[ASGS]-PP013-[GT-G4S]-Z14255
For B10, in the experiment with human IL-17A [4], the “IC50 … 0 weeks at 40 C” value worked out at 450 pM; the “IC50 … after 2 weeks at 40 C” value amounted to 340 pM; the “IC50 … after 4 weeks at 40 C” value came out at 550 pM. The binding result with cynomolgus monkey IL-17A is given as “binds”.

B11: ZAZ3364 (designed binder)
chain: B8 chain with S18A, Y28F, Q32S, S133A, Y143F, Q147S
notes: Z-ABD-Z polypeptide; also called Z14254-[ASGS]-PP013-[GT-G4S]-Z14254
B11: in the experiment with human IL-17A [4], the “IC50 … 0 weeks at 40 C” value turned out to be 200 pM; the “IC50 … after 2 weeks at 40 C” value is 400 pM; the “IC50 … after 4 weeks at 40 C” value was determined as 470 pM. The binding result in the experiment with cynomolgus monkey IL-17A is reported as “binds”.

B12: His6-Z06455 (designed binder)
chain: MGSSHHHHHHLQVDAKYAKEMDNAQWEIWLLPNLTWAQQHAFIGKLIDDPSQSSELLSEAKKLNDSQAPKVD
In the case of B12, the “IC50 … with HSA” value with human IL-17A [1] worked out at 67000 pM.

B13: ZAZ3220 (designed binder)
chain: VDAKYAKEADDAAVEIADLPNLTWDQWYAFISKLRDDPSQSSELLSEAKKLNDSQAPKGAPGGGGSGGGGSGGGGSGGGGSTSLAEAKEAANAELDSYGVSDFYKRLIDKAKTVEGVEALKDAILAALPGTGGGGSGGGGSGGGGSGGGGSPRVDAKYAKEADDAAVEIADLPNLTWDQWYAFISKLRDDPSQSSELLSEAKKLNDSQAPK
notes: Z-ABD-Z polypeptide; also called Z10241-[GAP-(G4S)4-TS]-PP013-[GT-(G4S)4-PR]-Z10241
Regarding B13, the “fold in vivo blocking effect compared to ZAZ3174” value in the experiment with human IL-17A [8] turned out to be 6 fold. Further, in the experiment with human IL-17A [4], the “IC50 … with HSA” value is 270 pM. In the experiment with human IL-17A [6], this molecule returned an equilibrium dissociation constant (Kd) of less than 0.065 pM and a kon of 1.35e+07 M⁻¹ s⁻¹. In addition, the binding result with rhesus monkey IL-17A was “binds”. In the experiment with human IL-17A [9], this molecule came in with a koff of 1.51e-07 s⁻¹.
